This is an account of results in publication PMC4336329 (PLoS ONE, 2015).

SMILES strings stand for the structures. The whole screen tested about 310,000 compounds, of which about 14,000 (4.5%) showed an effect of 50% or more. Effects have a minus sign here. This is one part of the list.
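Note: peak tail current of the secondary pulse compared with the same well before compound.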

The test deals with human ether-à-go-go-related gene (hERG) potassium channel (human, UniProt Q12809). In words: primary screen, population patch clamp on CHO cells stably expressing hERG.
human ether-à-go-go-related gene (hERG) potassium channel, sequence (Q12809 whole entry, looked up): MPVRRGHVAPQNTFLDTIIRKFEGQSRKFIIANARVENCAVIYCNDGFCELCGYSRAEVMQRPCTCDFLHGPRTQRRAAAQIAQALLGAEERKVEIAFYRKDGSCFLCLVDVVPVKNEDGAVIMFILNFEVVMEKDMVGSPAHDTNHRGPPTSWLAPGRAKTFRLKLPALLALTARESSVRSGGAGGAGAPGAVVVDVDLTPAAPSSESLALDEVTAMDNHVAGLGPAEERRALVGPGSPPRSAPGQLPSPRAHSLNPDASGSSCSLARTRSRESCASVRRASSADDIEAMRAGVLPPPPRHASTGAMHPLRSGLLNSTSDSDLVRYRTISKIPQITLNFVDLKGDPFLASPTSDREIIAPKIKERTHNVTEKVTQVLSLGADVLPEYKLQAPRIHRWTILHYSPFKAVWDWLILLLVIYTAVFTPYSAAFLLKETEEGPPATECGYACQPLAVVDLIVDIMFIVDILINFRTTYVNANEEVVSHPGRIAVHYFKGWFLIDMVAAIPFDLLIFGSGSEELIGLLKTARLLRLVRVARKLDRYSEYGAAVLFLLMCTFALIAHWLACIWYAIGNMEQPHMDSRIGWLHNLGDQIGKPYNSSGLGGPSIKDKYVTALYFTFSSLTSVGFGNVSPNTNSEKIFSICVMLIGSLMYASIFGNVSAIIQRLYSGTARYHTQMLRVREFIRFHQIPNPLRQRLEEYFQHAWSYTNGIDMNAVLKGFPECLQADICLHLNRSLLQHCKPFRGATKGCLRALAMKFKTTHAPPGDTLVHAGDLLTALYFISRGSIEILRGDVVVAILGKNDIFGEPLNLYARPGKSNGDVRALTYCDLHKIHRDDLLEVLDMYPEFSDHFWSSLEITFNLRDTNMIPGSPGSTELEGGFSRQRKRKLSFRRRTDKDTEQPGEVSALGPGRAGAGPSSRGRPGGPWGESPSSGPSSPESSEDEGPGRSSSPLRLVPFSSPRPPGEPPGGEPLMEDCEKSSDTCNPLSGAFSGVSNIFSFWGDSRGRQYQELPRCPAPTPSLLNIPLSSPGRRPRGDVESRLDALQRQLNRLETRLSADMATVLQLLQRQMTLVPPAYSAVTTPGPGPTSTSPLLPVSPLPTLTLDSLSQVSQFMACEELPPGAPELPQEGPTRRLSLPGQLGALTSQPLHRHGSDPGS
On to `O=C(CCCc1ccccc1)Nc1cccnc1Cl`, for which the “hERG current change (%, negative = inhibition) at 10uM” value is given as 12.7%. On to `CCOC(=O)N1CCC(NC(=O)c2cn(-c3ccc(OC)cc3)c(=O)c3ccccc23)CC1`, for which the “hERG current change (%, negative = inhibition) at 10uM” value is -6.75%. Consider `O=C(Nc1cccc2ncccc12)c1ccccc1Cl`, for which the “hERG current change (%, negative = inhibition) at 10uM” value came out at 18.6%. The result for `COCCn1c(N)c(N(Cc2ccccc2)C(=O)COc2ccc(F)cc2Cl)c(=O)[nH]c1=O` reads 20.8%. The result for `COc1ccc(/C=C2\SC(=S)N(CCC(=O)NCCCN3CCOCC3)C2=O)cc1.Cl` reads -0.616%; that for `CC1=C(C(=O)OCC2CCCO2)C(c2ccc(C)o2)C2=C(CC(c3ccc(F)cc3)CC2=O)N1` (stereo not shown), -29%. On to `CCC(=O)Nc1ccc(/C(C)=N\NS(=O)(=O)c2ccc(C)cc2)cc1`, for which the “hERG current change (%, negative = inhibition) at 10uM” value stood at 3.74%.

For `O=C(CN1C(=O)C2C3CC(C(Br)C3Br)C2C1=O)Nc1ccc(C(=O)O)cc1` (stereo not shown), the “hERG current change (%, negative = inhibition) at 10uM” value was 13.3%. The result for `CC(C)CC1Nc2ccc(C(=O)NCCCN3CCOCC3)cc2NC1=O` (stereo not shown) reads 20.3%; that for `COc1cccc(N(CC(=O)NCCSc2ccccn2)S(C)(=O)=O)c1`, 7.11%; that for `COc1ccc2nc(CNC(=O)C3CCC(=O)N(CCc4ccccc4)C3)[nH]c2c1` (stereo not shown), 12.3%.

For `O=c1c2ccccc2[nH]c(=S)n1CCCN1CCC(Cc2ccccc2)CC1`, the “hERG current change (%, negative = inhibition) at 10uM” value is -73.6%. The result for `CC/C(=N\NC(=O)CCC(=O)NCc1ccccc1)c1ccc(O)cc1` reads 8%; that for `Cn1c(SCC(=O)c2ccc(F)cc2)nnc1-c1cnccn1`, 3.06%; that for `CCOc1cc(/C=C2/NC(=O)N(CC(=O)Nc3cccc(C)c3)C2=O)ccc1OCC(N)=O`, 12%. The result for `O=C(c1cccc2ccccc12)C1CCCN(C(=O)CCc2cnccn2)C1` (stereo not shown) reads -5.34%; that for `COc1ccc(CNC(=O)COC(=O)c2cccnc2Nc2cccc(C(F)(F)F)c2)cc1`, 1.46%. The result for `Cc1ccc(NC(=O)COC(=O)Cc2c(F)cccc2Cl)cc1S(=O)(=O)N1CCOCC1` reads -34.3%. For the compound `COc1cccc(OC)c1C(=O)NC(=S)Nc1ccc2c(c1)C(=O)N(C)C2=O`, the “hERG current change (%, negative = inhibition) at 10uM” value was -3.61%. The result for `CCCCNc1ccc(C(=O)OCCN(C)C)cc1.Cl` reads -11.6%. For the compound `CCOC(=O)C1=C(N)OC2=C(C(=O)CCC2)C1c1ccccc1OCC` (stereo not shown), the “hERG current change (%, negative = inhibition) at 10uM” value is reported as 9.8%. Turning to `Cc1nnc(SCc2cnc(-c3ccccc3)o2)[nH]c1=O`, the “hERG current change (%, negative = inhibition) at 10uM” value is on record as 17.2%. Turning to `O=C(Nc1ccc(Cl)cn1)c1ccc2c(Cl)c3c(nc2c1)CCC3`, the “hERG current change (%, negative = inhibition) at 10uM” value was determined as 14.8%. The result for `COc1cc(S(=O)(=O)NC2CCCC2)ccc1F` reads 1.19%. Turning to `COc1ccc(-c2nc3ccccc3c(=O)o2)cc1`, the “hERG current change (%, negative = inhibition) at 10uM” value amounted to 26.1%. The result for `Cc1ccc(Nc2nc3c(s2)CCC3)c(C)c1` reads -3.3%; that for `O=c1cc(C(F)(F)F)nc(-n2[nH]c3c(c2=O)CCCC3)[nH]1`, 5.08%; that for `O=C(O)C1C2C=CC(C2)C1C(=O)Nc1ccc2c(c1)OCCO2` (stereo not shown), 14.3%. Take `O=C(CSc1ncn[nH]1)N/N=C/c1ccc(C(F)(F)F)cc1`: the “hERG current change (%, negative = inhibition) at 10uM” value is -1.39%.

`Cc1cc(=O)c2cc(Cl)ccc2[nH]1`: the “hERG current change (%, negative = inhibition) at 10uM” value is 2.55%.

As for `C=CCOc1ccc(C(=O)c2ccccc2)c(OCC(=O)NC2(C#N)CCCC2)c1`, the “hERG current change (%, negative = inhibition) at 10uM” value is listed as 8.08%. The result for `O=C(CSc1nnnn1Cc1ccccc1)NCC(=O)c1ccccc1` reads -2.09%; that for `Cc1cc(Nc2nc3ccccc3[nH]c2=O)n(-c2ccccc2)n1`, -5.63%. The result for `O=C(OCc1nnc(-c2ccccc2)o1)c1ccco1` reads -8.22%; that for `O=C(Cn1[nH]c(=O)c2ccccc2c1=O)OCC(=O)c1ccccc1`, 11.3%.

As to `OC(CNCc1ccc2c(c1)OCO2)COc1ccccc1` (stereo not shown), the “hERG current change (%, negative = inhibition) at 10uM” value was -5.74%. Regarding `Cc1cccc(NC(=O)CNC(=O)Cc2ccc(S(=O)(=O)N3CCOCC3)s2)c1C`, the “hERG current change (%, negative = inhibition) at 10uM” value worked out at 5.91%.

With `O=C(Cn1cc2c(n1)CCCCC2)NCCCN1CCOCC1`, the “hERG current change (%, negative = inhibition) at 10uM” value was 7.34%. The result for `Cn1c(SCc2ccccc2[N+](=O)[O-])nnc1-c1cccnc1` reads 12.1%. The result for `Cc1nn(-c2ccccc2)c(Cl)c1/C=N/NC(=O)c1ccco1` reads -17.7%; that for `Cc1ccc(C)c(OCc2cc(C(=O)N3C[C@H]4C[C@@H](C3)c3cccc(=O)n3C4)no2)c1`, -38.3%; that for `COc1cc(Cn2ccnc2)c(OC)cc1Cn1ccnc1`, -13.4%.

As for `COc1cc(OC)cc(-c2nnc(NC(=O)CCS(=O)(=O)c3ccc(C)cc3)o2)c1`, the “hERG current change (%, negative = inhibition) at 10uM” value is on record as -3.68%.

Turning to `COc1ccc(NC(=O)c2cc(C)no2)cc1Cl`, the “hERG current change (%, negative = inhibition) at 10uM” value worked out at 19.3%. Consider `COc1cccc(NC(=O)CNS(=O)(=O)c2ccc3nc(C)sc3c2)c1`, for which the “hERG current change (%, negative = inhibition) at 10uM” value is listed as 1.57%. The result for `C[C@@H](C(=O)N1CCN(C(=O)OC(C)(C)C)CC1)n1cc(CCCN=C(NC(=O)OC(C)(C)C)NC(=O)OC(C)(C)C)nn1` reads 8.32%. The result for `Cc1ccc(OCCN(C)C)c([N+](=O)[O-])c1.O=C(O)C(=O)O` reads -36.1%; that for `O=C(OC1Cn2c(=O)ccc(=O)n2C1)c1ccc([N+](=O)[O-])cc1`, -12.8%; that for `COc1ccc(C(=O)c2oc3nc(C)cc(C)c3c2N)cc1`, -4.43%. The result for `CCOC(=O)C1CCN(S(=O)(=O)c2cnc[nH]2)CC1` reads 14.3%; that for `Cc1ccc(-n2c(O)c(/C=C/C=Nc3ccccc3)c(=O)[nH]c2=O)cc1`, 9.3%; that for `CCc1ccccc1N1CSC2=C(C#N)C(c3ccccc3F)CC(=O)N2C1` (stereo not shown), -5.52%. Turning to `CC1Sc2ccc(S(=O)(=O)CCC(=O)Nc3ccccc3Cl)cc2NC1=O` (stereo not shown), the “hERG current change (%, negative = inhibition) at 10uM” value was found to be 4.08%. On to `CCC(CC)C(=O)NCc1ccccc1Cl`, for which the “hERG current change (%, negative = inhibition) at 10uM” value came out at 12.5%.

As for `COCC(C)n1c(C)cc(C(=O)CSc2nc3ccccc3c(=O)[nH]2)c1C` (stereo not shown), the “hERG current change (%, negative = inhibition) at 10uM” value amounted to 3.95%.

In the case of `CC1(C)CC(=O)C/C(=N/NC(=O)COc2ccc(Cl)cc2Cl)C1`, the “hERG current change (%, negative = inhibition) at 10uM” value is on record as -14.3%. Take `Cc1ccc(/C=N/NC(=O)c2nnn(-c3nonc3N)c2CSc2ccccc2)o1`: the “hERG current change (%, negative = inhibition) at 10uM” value turned out to be 11.7%. The result for `COc1ccc(N2CCN(CC(=O)Nc3nc(C)cs3)CC2)cc1` reads 13.4%. The result for `O=C(Cn1ccc(C(F)(F)F)n1)N/N=C/c1ccc(N2CCOCC2)cc1` reads 7.68%; that for `CSCc1ccc(C(=O)NCc2ccccc2)cc1`, -8.13%. The result for `C/C(=N\Nc1ccc(C(=O)O)cc1)c1ccc(Cl)s1` reads 21.8%; that for `COc1ccc(NS(=O)(=O)c2ccc3c(c2)oc(=O)n3C)cc1Cl`, 10.4%.

Consider `CCOc1ccc(OCCC(=O)OCC(=O)Nc2ccc(Cl)cn2)cc1`, for which the “hERG current change (%, negative = inhibition) at 10uM” value is on record as 7.09%. The result for `CC(C(=O)N(C1CC1)C1(C(=O)Nc2ccccc2)CCCC1)N1C(=O)c2ccccc2C1=O` (stereo not shown) reads -0.31%; that for `c1ccc2c(c1)c1cccc3ccc4cccc2c4c31`, 16.4%; that for `CCCCn1c(O)c(C(CC)=NCc2cccnc2)c(=O)[nH]c1=O`, -33.6%. For `CCOCCCNC(=O)C1(O)c2cc(Br)ccc2NC(=O)N1c1ccc(CC)cc1` (stereo not shown), the “hERG current change (%, negative = inhibition) at 10uM” value turned out to be 28.4%. The result for `O=C(O)Cc1cn(Cc2cccc(Cl)c2)c2ccccc12` reads 12.6%; that for `CC(C)(C)OC(=O)CN1C(=O)S/C(=C\c2ccc(-c3cccc(C(=O)O)c3)o2)C1=O`, 17.5%.

As to `O=C(C1CCCN(S(=O)(=O)c2ccc(Br)cc2)C1)N1CCN(Cc2ccccc2)CC1` (stereo not shown), the “hERG current change (%, negative = inhibition) at 10uM” value is reported as -55.1%. The result for `COc1ccc(N(CC(=O)N/N=C/c2ccc(F)cc2)S(=O)(=O)c2ccccc2)cc1` reads -3.78%; that for `COCCCn1c(SCC(=O)Nc2oc(C)c3c(C)n[nH]c(=O)c23)nc2ccccc2c1=O`, -46.5%. The result for `Cc1ccc(CS(=O)(=O)CCC(=O)NCc2ccc(F)cc2)cc1` reads 7.26%; that for `CCOc1ccc(Nc2cc3n(c(=O)n2)CCc2cc(OC)c(OC)cc2-3)cc1`, -16.1%; that for `COc1ccc(-c2ocnc2C(=O)N2CCN(C(c3ccccc3)c3ccccc3)CC2)cc1`, 6.49%. The result for `COCC(=O)N1CCC(Oc2ccc(C(=O)N3C[C@@H](C)O[C@@H](C)C3)cc2)CC1` reads -25.8%.

For `Cc1ccc(S(=O)(=O)NCC(=O)OCc2csc(-c3ccccc3)n2)cc1`, the “hERG current change (%, negative = inhibition) at 10uM” value is on record as 5.28%. The result for `O=C(COc1ccccc1)NCCc1cnc[nH]1` reads 13.5%; that for `CC1CCC(NC(=O)CN(C)CC(=O)Nc2ccc(F)cc2)CC1` (stereo not shown), -13.3%; that for `CCN(CC)C(=O)CS(=O)CC(=O)Nc1cc(OCCOC)c(Cl)cc1Cl` (stereo not shown), 8.46%. For the compound `O=c1[nH]c(Cc2cccc(C(F)(F)F)c2)nc2ccccc12`, the “hERG current change (%, negative = inhibition) at 10uM” value was determined as 19.1%. The result for `C=CCn1c(-c2cccc(OC)c2)n[nH]c1=S` reads 14.5%; that for `Cc1ccc(C(=O)OCC(=O)Nc2cc(F)ccc2F)cc1NC(=O)c1ccco1`, 7.99%. In the case of `CCNC(=O)CCCOc1ccc(Cl)cc1Cl`, the “hERG current change (%, negative = inhibition) at 10uM” value is given as -5.18%.

Turning to `CC(C)=CC(=O)Nc1nnc(C)s1`, the “hERG current change (%, negative = inhibition) at 10uM” value is reported as -7.45%. The result for `CO/N=C/C(=N\Nc1ccc(OC)cc1)C(=O)c1ccc(OC)cc1` reads 32.6%; that for `Cc1cc(C)n(C(C)CC(=O)Nc2ccc3c(c2)OCO3)n1` (stereo not shown), 10.2%; that for `CC(C)C(NC(=O)c1ccc(Cl)cc1)C(=O)NCC1CCCO1` (stereo not shown), 21%.
